Experimental findings from the RNAGym collection of RNA variant scans (doi:10.1093/nar/gkz1192) are described below.

Read counts are not given, so values of variants with three or more changes are uncertain.

B1: CPEB3 Ribozyme (parent)
chain: UAACAGGGGGCCACAGCAGAAGCGUUCACGUCGCAGCCCCUGUCAGAUUCUGGUGAAUCUGCGAAUUCUGCUGUAUAUCUC

In this data set the parent is B1. The data set is described as follows: self-cleavage, relative activity (ratio to wild type); higher = more cleavage; in vitro, sequencing. The procedure, abridged: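 Barcoded CPEB3 ribozyme mutants, produced by rounds of error-prone PCR, self-cleaved while being transcribed with T7 RNA polymerase for 5 hours at 37°C and during a subsequent 15 min DNase I step before EDTA was added. Sequencing of template-switched cDNA on Illumina gave cleaved and total reads, and DNA sequencing assigned barcodes to variants. Each variant's relative activity is its cleaved/total read fraction divided by the unmutated ribozyme's fraction, averaged across three batches. A variant needed a minimum of 5 reads.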
In the case of U51C A57G U80C, the self-cleavage worked out at 0.99.
The figure for U54A U74C U80C is 1.26; for U49C U67A U76C it is 0.23; for U51A U60C A64U U72C U76C it is 0.48.
The figure for U51A U54C A56G U60A U67C U80C C81A is 0.4; for U49C U66C U72C it is 0.33.
As for U51A A56G A65U, the self-cleavage worked out at 0.11.
Take U51C A57G U58A U60C U80C: the self-cleavage is 0.24.
The figure for U54A U76C U80C is 1.15; for G53A A64G A65G it is 0.18.
The figure for U51C U54C U72A is 0.65; for U51C U54C U72C it is 1.15.
As for U54A U66C U69A, the self-cleavage was 0.48.
For the variant U51A A57G G61A A65G, the self-cleavage came to 0.21.
In the case of U51C C62U A65G U67C it was 0.4; in that of C50A A65G U69A, 0.14.
In the case of U51A G53A U54C it was 1.21.
With C50A U58A U69C, the self-cleavage came out at 0.18.
Turning to U54A C62U A65G U80A, the self-cleavage is 0.18.
Regarding U54A A56U A64U, the self-cleavage is 0.21.
The figure for G53A U58C U72C A75U is 1.1; for G52A A64G G70U it is 0.45; for U51C U54C U58A it is 0.41.
The figure for U51C A56G U67C U72C U74C is 0.46; for U49C U76A U78C it is 0.57; for U54C A64G U67C U72C U78G it is 0.36.
In the case of C50U U54C A57G it was 0.55; in that of C50A U51C U69C G73A, 0.94; in that of C50G U51C A56G, 0.3.
As to U51C U58A A77G, the self-cleavage is 0.21.
For the variant U49C U60C U66C, the self-cleavage was found to be 0.13.
In the case of U54A U60C G63A U78C it was 0.39; in that of U51C U60G A75G, 0.15.
With U54A A56G A57U U58C, the self-cleavage worked out at 0.14.
In the case of U49C U67C U72A it was 0.12.
In the case of U51A U69G U80C, the self-cleavage was 0.83.
In the case of U51A U60A C68A it was 0.44.
The figure for U51A A57G U67C U78C is 0.22.
In the case of U51C G61C U72C it was 0.41.
As for U54C A65C U67C U76C, the self-cleavage came to 0.12.
As to U51A U54C U72C, the self-cleavage turned out to be 1.12.
The figure for G52A U60C U76A is 0.87; for G53C A57G U80C it is 0.81.
The figure for G53A U54G G73U is 1.27.
As to U49C U67A U80C, the self-cleavage was 0.08.
In the case of U51A U69G A75G A77G it was 0.55; in that of G52U A64G U72C, 1.06.
With U51C A75U U78C, the self-cleavage came out at 1.16.
U51C U72C G73A: the self-cleavage worked out at 1.29.
The figure for U54A U67C U78C U80C is 0.39.
In the case of U51C U54C A56G U66C it was 0.37; in that of U54A A57G U67C, 0.68.
Regarding U51A U72A U78C, the self-cleavage turned out to be 0.58.
In the case of C50A U76A U80C it was 0.89; in that of U51C U60A U69C C81A, 0.35.
The figure for G52C U54G A57G A64G is 0.62.
In the case of U54A U60C U80C it was 0.56; in that of U51C C71A C79U, 0.32.
On to U49G U51A U60C U80A, for which the self-cleavage was found to be 0.1.
As to C50U U51A U69C, the self-cleavage amounted to 0.52.
The figure for U49C U60A C81U is 0.17; for U54A U69C C81U it is 0.91.
For the variant U51G A64G U74C A75U, the self-cleavage was 1.24.
In the case of U54C A65G A75U it was 0.28; in that of U54A C68U U69G, 0.52; in that of U51C U60A G63A U69A U72A U80A, 0.43.
In the case of U51C A77C C79U it was 1.13; in that of U51A U54C C59U A64G U72C U80C, 0.52.
The figure for G52U U54C U60C U72A is 0.4; for G52A A56G U80C it is 1.15; for U51A A56U A64C it is 0.18.
Take C50A A57G U58C: the self-cleavage is 0.15.
For G52A U60C U72C U78C, the self-cleavage worked out at 0.87.
For the variant U51C U54C U74A, the self-cleavage worked out at 1.24.
The figure for U51G U69A U72A is 0.37; for U54A U69C U76A it is 0.67; for U49C U58A A64G it is 0.13.
In the case of U54A G61A A65G U74C it was 0.33; in that of G53C A65G U80C, 0.55; in that of U51A A65U U67C U76C, 0.33.
Regarding U51G A57G U72A, the self-cleavage amounted to 0.62.
As to U51C A57G A64U U66C, the self-cleavage came to 0.14.
The figure for U54C C59U U72C is 0.8; for U51A U66G U69C it is 0.09; for U51C G52C G55U U74G A77U U78A it is 1.16.
Regarding U51G A57U U72C U80C, the self-cleavage is 0.65.
In the case of U54A A57G U58C C68G it was 0.22.
The figure for U54C A64G C81U is 0.88.
The figure for U51A A56G U60C is 0.42; for U51A G63U A64C U76C it is 0.19; for U51C U60A U72A A75G it is 0.6.
Turning to U49C U58C U60A, the self-cleavage is 0.16.
Consider U49C U58C U60C, for which the self-cleavage was found to be 0.07.
In the case of U54A G63C U78A it was 1.02; in that of U51A U54C U58C, 0.61; in that of U51A A57G U60C U67C, 0.42.
The figure for U51C A57G U72A U80C is 0.59.
On to U54C G55A A75U, for which the self-cleavage was 0.83.
Take U49C U66C U69C: the self-cleavage turned out to be 0.09.
In the case of U51A U78C U80C it was 0.7.
Take U51A A64U U69C: the self-cleavage worked out at 0.44.
In the case of U51A A64U U69A, the self-cleavage was 0.35.
As to G52C U72A U78C, the self-cleavage is 0.77.
For U54A U60C A77G, the self-cleavage amounted to 0.94.
As for U49C U78A C81U, the self-cleavage is 0.38.
For the variant U54A U69G U72C, the self-cleavage is 0.5.
In the case of U54C A64U U69A it was 0.28; in that of U51A G53A U66C U72C, 0.72.
In the case of C50A A64G U74C it was 1.15; in that of U49C U67C U69A, 0.21.
As for U54A A56U G73A, the self-cleavage worked out at 1.06.
In the case of U49C U54C U58A U72A it was 0.13; in that of C50U U54A U60C A64C U76C U78C, 0.14; in that of U49G G55C A57U, 0.48.
In the case of C50A A56G G70A U78A it was 0.11; in that of U54A U67A U78C, 0.81.
In the case of G52A A77G U80A it was 1.07.
For the variant U49C U60A C68A, the self-cleavage is 0.36.
On to U51A A56G A57U U69C, for which the self-cleavage amounted to 0.18.
For the variant G53C A57G A64G U66A A77G, the self-cleavage came to 0.15.
Consider U51C U54C U72C A77G, for which the self-cleavage turned out to be 1.22.
For G53A U60C A64G U67A U78C U80A, the self-cleavage stood at 0.46.
The figure for U51A A65G U69C is 0.21; for U49C U60A U72A it is 0.13; for U49C U67C U69C A75C it is 0.14.
The figure for U51C U76C U80C is 1.21; for G53A U67A U76C it is 0.69.
Consider G52A A56C U69A, for which the self-cleavage amounted to 0.49.
On to U51A U69C U72A U80C, for which the self-cleavage was found to be 0.64.
In the case of C50A U69A A77U it was 0.19; in that of G52C U54A U67C, 0.78.
The figure for U51G U58C C62U A65U U72C is 0.23; for U51G A57G U76A U80A it is 1; for G53A U60C U80C it is 0.4.
For the variant U49C U54C U72C, the self-cleavage stood at 0.21.
In the case of G53A A64U U76A it was 0.31; in that of U51A U58C U74C U78C, 0.61.
The figure for U51G U54C U58C is 0.45.
The figure for U51A G52A A57G G63A U66C G73A A77G is 0.65.
On to U54A G55C G73A, for which the self-cleavage worked out at 1.15.
The figure for C50U G63A A64C is 0.29; for U51A U60C A64U U69A U80A it is 0.34.
For U51A U72C C81A, the self-cleavage turned out to be 0.95.
G52A A64C U67C: the self-cleavage stood at 0.46.
U54C A57G U69C: the self-cleavage was found to be 0.21.
For U54C C62G U66G, the self-cleavage came to 0.16.
In the case of U51A U58A G61A, the self-cleavage was 0.46.
The figure for U51C A57U G63U is 0.54; for U51A G63U A64C it is 0.21.
Consider C50A A56U U72A, for which the self-cleavage came out at 0.34.
As to U51C A56C U74C, the self-cleavage was determined as 0.91.
In the case of G52A U66A U80A it was 0.41.
The figure for G52A G61A U74C is 1.08; for U49C U58C G73A it is 0.27; for U49C U76G A77U it is 0.19.
In the case of U49G U51C A65G it was 0.31; in that of U51C G53C U69A, 0.5.
As for U54C A56G U78A, the self-cleavage is 0.73.
In the case of U54C A56G U78C, the self-cleavage amounted to 0.53.
Turning to U54A A57G U78C, the self-cleavage worked out at 0.84.
Regarding U54A C62U U66C, the self-cleavage was found to be 0.22.
In the case of U51G U78A C79G it was 1.26; in that of U51A U58C G61C U66A, 0.3; in that of U51C U58A C68U, 0.16.
Consider U51A C62U U72C A75G, for which the self-cleavage worked out at 0.2.
The figure for C50A U72C U80C is 1.2; for U51C U66C U69C U80C it is 0.34.
